Laboratory results: PubChem BioAssay AID602310 (National Center for Advancing Translational Sciences (NCATS), 2012)
Among all 410,000 compounds or so, about 310 (0.076%) were called active. Inconclusive results, whose numbers are uncertain, are shown with a selection of clear calls. Calls come from the whole dose curve; as a rule, active = well fitted curve in the direction sought with a large enough effect; inconclusive = small, poorly fitted or top-dose-only effect; inactive = flat fitted curve, though single readings scatter. Potencies of inconclusive entries are doubtful fits and often do not repeat.

Target: DNA dC->dU-editing enzyme APOBEC-3G (Homo sapiens) (UniProt Q9HC16)
Experiment: qHTS for Inhibitors of Vif-A3G Interactions: qHTS; note: nearly all actives have a fitted effect of over 60% in size
Conditions: HeLa A3G-eYFP + Vif (tagged APOBEC3G with the HIV-1 protein that degrades it), YFP fluorescence, overnight; series mostly up to 46.1 µM
Outline: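 Read-out is eYFP fluorescence (Ex 488/Em 500-530) from Vif-expressing HeLa A3G-eYFP cells; more signal means A3G escaped Vif-mediated degradation. Cells plated overnight, compound pinned in, incubated overnight at 37 deg C.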
Potency is the fitted concentration of half-maximal effect; tags give direction and shape of the fitted curve.

Chain of UniProt Q9HC16 (Q9HC16 whole entry, looked up): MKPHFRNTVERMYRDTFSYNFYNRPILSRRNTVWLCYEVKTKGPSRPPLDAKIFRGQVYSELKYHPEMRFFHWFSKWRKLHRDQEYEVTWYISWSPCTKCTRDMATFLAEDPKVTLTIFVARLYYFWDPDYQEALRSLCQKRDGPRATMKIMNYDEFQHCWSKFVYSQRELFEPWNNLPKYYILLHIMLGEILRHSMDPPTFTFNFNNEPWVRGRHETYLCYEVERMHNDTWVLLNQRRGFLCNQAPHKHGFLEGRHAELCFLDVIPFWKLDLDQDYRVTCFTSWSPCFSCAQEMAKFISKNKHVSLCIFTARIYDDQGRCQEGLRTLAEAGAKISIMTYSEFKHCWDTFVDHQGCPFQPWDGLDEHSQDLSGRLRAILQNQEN

SMILES | Potency
CC(=O)Nc1c(Br)cc(N2C(=O)CCC2=O)cc1Br | inconclusive: 5.62 µM [inhibitor, single point]
O=C(Nc1cc(C(F)(F)F)ccc1-n1cncn1)c1ccc([N+](=O)[O-])o1 | inconclusive: 17.8 µM [inhibitor, single point]
Cc1ccc(Nc2nc(NCc3ccco3)nc3nccnc23)cc1C | inactive
COc1ccc(C(=O)c2sc3nc(C)cc(-c4cccs4)c3c2N)cc1OC | inconclusive: 17.8 µM [inhibitor, partial curve, poor fit]
CCCCN(CCC(=O)O)c1ccc(/C=C/c2ccnc3ccccc23)cc1 | inconclusive: 11.2 µM [inhibitor, partial curve, poor fit]
O=C(Nc1cccc2nsnc12)c1ccc(-c2cccc(Cl)c2)o1 | inconclusive: 17.8 µM [inhibitor, single point]
COc1ccc(NC(=O)CN(C)S(=O)(=O)c2ccc3[nH]c(=O)oc3c2)cc1 | inactive
Cc1ccc(Nc2nc(Cl)c(C=O)s2)cc1 | inconclusive: 28.2 µM [inhibitor, single point]
O=C(Cn1nc(-c2ccccc2)c2ccccc2c1=O)Nc1ccc2c(c1)nc1n2CCOC1 | inconclusive: 22.4 µM [inhibitor, single point]
COC(=O)c1cc(C(=O)N2CCN(c3ccccc3OC)CC2)cc([N+](=O)[O-])c1 | inconclusive: 1.26 µM [inhibitor, full curve, poor fit]
COc1ccc(CN2CN(C3CCCC3)CSC2=S)cc1 | inconclusive: 28.2 µM [inhibitor, single point]
Cc1cc(C)cc(NC(=O)c2ccc3c(c2)nnn3C2CCCC2)c1 | inconclusive: 1.12 µM [inhibitor, partial curve, poor fit]
CCc1c2c(nc3ccc(OC)cc13)-c1nc3ccccc3c(=O)n1C2 | inactive
COc1ccc(NS(=O)(=O)c2cc(NC(=O)c3ccc(F)cc3)ccc2OC)cc1 | inactive
COC(=O)c1c(NC(=O)Cn2cnc([N+](=O)[O-])n2)sc2c1CCC(C)C2 (stereo unspecified) | inactive
COc1cc2c(C#N)c(N3CCc4ccccc4C3)nc(N)c2c(N)n1 | inactive
Cc1cccc2sc(NNC(=O)c3cc(=O)c4ccccc4o3)nc12 | inconclusive: 28.2 µM [inhibitor, single point]
COc1cc(/C=C2\SC(=Nc3ccccc3)NC2=O)cc(Cl)c1O | inconclusive: 3.16 µM [inhibitor, partial curve, poor fit]
CCOc1ccc2nc(NC(=O)CSc3nc(-c4ccccc4)c(C#N)c(=O)[nH]3)sc2c1 | inactive
CC(C)COP(=O)(OCC(C)C)C(Nc1ccccc1)c1ccc2c(c1)OCO2 (stereo unspecified) | inactive
Cc1ccc(CNC(=O)c2cccc3c2C(=O)c2ccc(N4CCCCC4)cc2S3(=O)=O)cc1 | inconclusive: 20 µM [inhibitor, partial curve, poor fit]
COc1ccc(C)cc1NC(=O)Cn1c(=O)c(C(F)(F)F)nc2ccccc21 | inactive
CC(C)=CCc1c2c(c3occ(-c4ccc(O)cc4)c(=O)c3c1O)C=CC(C)(C)O2 | inactive
COc1cc(/C=N/Nc2nc3ccccc3s2)ccc1OC(=O)c1ccccc1F | inconclusive: 35.5 µM [inhibitor, single point]

SMILES | Potency
COc1ccc(Cc2n[nH]c(=S)n(N)c2=O)cc1 | inactive
CSc1nc2[nH]c(=O)n(O)c(=O)c2n1Cc1ccccc1 | inconclusive: 17.8 µM [inhibitor, single point]
CCc1nc2ccc(C(=O)NC3CCN(Cc4ccccc4)CC3)cn2c1N(CC)Cc1cccc(Br)c1 | inactive
CCc1ccc2nc(N(Cc3cccnc3)C(C)=O)sc2c1 | inactive
Cc1ccc(C(=O)N/N=C\c2ccc(-c3ccc(Cl)cc3)o2)cn1 | inconclusive: 8.91 µM [inhibitor, partial curve]
Cc1ccc(-c2nc(Nc3ccc(N4CCOCC4)cc3)c3ccccc3n2)cc1 | inconclusive: 25.1 µM [inhibitor, single point]
CC(C)NC(=O)c1ccc(-n2c(-c3ccccc3)cc3c2CCCC3)cc1 | inconclusive: 17.8 µM [inhibitor, single point]
CCc1ccc2[nH]c(O)c(N=Nc3nc(-c4ccccc4)cs3)c2c1 | inconclusive: 25.1 µM [inhibitor, single point]
O=c1c2cn[nH]c2[nH]c(=S)n1-c1ccccc1 | inactive
CCNC(=O)c1sc(=S)n(CC)c1N | inactive
CCC1(C)Cc2c(sc3nnn(CC(=O)Nc4ccc(C)cc4)c(=O)c23)CO1 (stereo unspecified) | inactive
CCOc1ccc(S(=O)(=O)NCc2ccccn2)cc1NC(=O)c1ccccc1F | inconclusive: 1.12 µM [inhibitor, full curve]
CCOC(=O)c1cnn2c(C(F)(F)F)cc(-c3ccc(Br)cc3)nc12 | inactive
COc1ccc(OC)c(NS(=O)(=O)c2ccc(SC)cc2)c1 | inconclusive: 6.31 µM [inhibitor, full curve]
O=C(Cn1ncc(Cl)c(Cl)c1=O)c1ccc(Cl)cc1 | inconclusive: 22.4 µM [inhibitor, single point]
COC(=O)N1CCc2c(sc(NC(=O)C3=COCCO3)c2C#N)C1 | inconclusive: 1.26 µM [inhibitor, full curve, poor fit]
O=c1[nH]cnc2c1[nH]c(=S)n2C1O[C@@H](CO)[C@H](O)[C@@H]1O (stereo partly specified) | inactive
O=C(COc1cccnc1[N+](=O)[O-])Nc1ncc(Cl)cc1Cl | inactive
CCOC(=O)c1[nH]c2ccc(F)cc2c1NC(=O)C(C)N1CCc2cc(OC)c(OC)cc2C1 (stereo unspecified) | inconclusive: 3.98 µM [inhibitor, full curve, poor fit]
O=C1NCC(O)=C1C=Nc1ccccc1O | inconclusive: 35.5 µM [inhibitor, single point]
Cc1cc(SCC(=O)c2cccs2)nc2ccccc12 | inconclusive: 35.5 µM [inhibitor, single point]
O=C(N/N=C/c1ccccc1OC(F)F)c1cc(-c2ccncc2)nc2ccccc12 | inconclusive: 1.78 µM [inhibitor, partial curve, poor fit]
CC(=O)Nc1ccc(/C=C/C(=O)c2ccc(-n3nncc3-c3ccccc3)cc2)cc1 | inconclusive: 22.4 µM [inhibitor, partial curve, poor fit]
COC(=O)c1ccc(CNC(=O)Cn2cnc3c(NCc4ccccc4)ncnc32)cc1 | inconclusive: 35.5 µM [inhibitor, single point]

SMILES | Potency
Cc1ccc(/C=C/C(=O)N2CC(C)CC(C)C2)o1 (stereo unspecified) | inconclusive: 31.6 µM [inhibitor, single point]
Cc1nn(-c2ccccc2)c2nc(-c3ccccc3)cc(C(=O)N3CCOCC3)c12 | inactive
CC[C@@]1(c2ccccc2OC)C(=O)N(C(=O)OC)N1C(=O)OC | inactive
Clc1ccc(Cn2ncc3c(NCc4ccccc4)ncnc32)cc1 | inconclusive: 3.55 µM [inhibitor, single point]
CC(C)Oc1ccc(Br)cc1C(=O)N/N=C/c1c[nH]c2ccccc12 | inconclusive: 6.31 µM [inhibitor, full curve]
Cc1cc(SCC(=O)OC/C(O)=C(\C#N)c2nc3ccccc3[nH]2)c(C)cc1Br | inconclusive: 22.4 µM [inhibitor, single point]
Cc1[nH]c(=O)cc2ccccc12 | inactive
COc1ccc(N2CCN(CCCNC(=O)C3CCC(CNc4nc(=S)[nH]c5ccccc45)CC3)CC2)cc1 (stereo unspecified) | inactive
C=C(C)C(=O)Nc1cccc(C2=NOC3(C2)C[C@@H](C(N)=O)N(C(=O)C(=C)C)C3)c1 (stereo partly specified) | inactive
COc1cc(/C=C2\COC/C(=C\c3ccc(O)c(OC)c3)C2=O)ccc1O | inconclusive: 3.16 µM [inhibitor, full curve, poor fit]
CC(C)(C)c1ccc(/C=N/Nc2nncn2N)cc1 | inactive
CC(C)(C)n1ncc2c(=O)n(Cc3ccc(Cl)c(F)c3)cnc21 | inactive
COc1ccc(/C=N\NC(=O)c2ccccc2)cc1COc1ccc(F)cc1 | inconclusive: 11.2 µM [inhibitor, single point]
CNCc1ccccc1Sc1ccc(O)c(O)c1 | inconclusive: 22.4 µM [inhibitor, single point]
COc1cc(C2C(C#N)=C(N)N(Nc3ccccc3)C3=C2C(=O)CC(C)(C)C3)ccc1OCc1cccc(F)c1 (stereo unspecified) | inactive
COc1cccc2c(SCC(=O)N/N=C/c3ccc(O)c(O)c3)cc(C)nc12 | inconclusive: 22.4 µM [inhibitor, single point]
O=C(CSc1nc(-c2ccccc2)[nH]c1-c1ccccc1)Nc1ccc2c(c1)OCO2 | inconclusive: 28.2 µM [inhibitor, single point]
CC(C)[C@H](NC(=O)C1CCCC1)c1nc2ccccc2[nH]1 | inactive
Fc1ccc(Nc2nc3nonc3nc2Nc2cccc(C(F)(F)F)c2)cc1 | inactive
COc1ccc(CNc2ncnc3c2[nH]c2ccccc23)cc1 | inactive
O=C(OCc1cccc(C(F)(F)F)c1)c1cc([N+](=O)[O-])ccc1N1CCOCC1 | inactive
CCC1CCCCN1CCCNC(=O)c1ccc2c(c1)N(Cc1ccccc1F)C(=O)c1ccccc1S2(=O)=O (stereo unspecified) | inconclusive: 2.51 µM [inhibitor, full curve, poor fit]
O=C(C[C@H]1C/C=C\CC[C@H](Cc2ccc(F)cc2)C(=O)O[C@@H](c2ccccc2)CNC1=O)N[C@H](CO)Cc1ccccc1 | inconclusive: 22.4 µM [inhibitor, single point]
